Experimental data published in the supplement of paper PMC9446081.
About 220 (0.56%) of roughly 39,000 compounds showed activity. Some of the results follow.

system: Escherichia coli K-12 BW25113; experiment: relative growth (OD600 normalised to plate interquartile mean) (fraction); higher = less growth inhibition, active = 0.2 or less; settings: 50 µM; LB; incubation time: overnight (16-24 h)
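Also: static incubation at 37 °C against the wild-type strain, values averaged over two biological replicates.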

Compound | relative growth
C[C@H](CO)N1C[C@H](C)[C@H](CN(C)Cc2ccc(C(=O)Nc3ccccc3N)cc2)Oc2c(NC(=O)NC3CCCCC3)cccc2C1=O | inactive: 1.01
C[C@@H]1CN([C@@H](C)CO)C(=O)c2cc(C#CC(C)(C)O)cnc2O[C@H]1CN(C)C(=O)CN(C)C | inactive: 0.986
Cn1cnc(S(=O)(=O)N[C@@H]2CC[C@H](CC(=O)NCC3CC3)O[C@H]2CO)c1 | inactive: 0.932
COc1ccc(CSCCN)cc1Cl | inactive: 1.01
CC(C)NC(=O)Nc1cccc2c1O[C@@H](CN(C)S(=O)(=O)c1ccccc1)[C@@H](C)CN([C@@H](C)CO)C2=O | inactive: 0.993
COc1ccc(NC(=O)N(C)C[C@H]2OCCCC[C@@H](C)Oc3ccc(NS(=O)(=O)c4c(C)noc4C)cc3C(=O)N([C@H](C)CO)C[C@H]2C)cc1 | inactive: 0.996
COc1ccc(S(=O)(=O)N2C[C@@H](O)COC[C@H]3O[C@@H](CC(=O)NCCN4CCCCC4)CC[C@@H]32)cc1 | inactive: 1.01
COc1ccc(NC(=O)Nc2ccc3c(c2)C(=O)N([C@@H](C)CO)C[C@@H](C)[C@@H](CN(C)S(=O)(=O)c2ccc(Cl)cc2)OCCCC[C@@H](C)O3)cc1 | inactive: 1.03
CS(=O)(=O)c1cc(F)ccc1N | inactive: 0.965
C[C@@H]1CCCCO[C@@H](CN(C)Cc2ccc(C(F)(F)F)cc2)[C@H](C)CN([C@@H](C)CO)C(=O)c2cc(NC(=O)c3ccncc3)ccc2O1 | inactive: 0.86
CCCNC(=O)N(C)c1nncnc1C(=O)NC | inactive: 1.01
COC(=O)c1c(CC[C@@H](COC(=O)NCCCCCC(=O)NO)NC(=O)N[C@@H](Cc2ccccc2)Cn2cc(-c3ccccc3)nn2)oc(C(=O)N2CCOCC2)c1C(=O)OC | inactive: 1.02
C[C@@H]1CCCCO[C@@H](CN(C)C(=O)C2CCCCC2)[C@H](C)CN([C@@H](C)CO)C(=O)c2cc(NC(=O)Nc3ccc4c(c3)OCO4)ccc2O1 | inactive: 1.02
COCC#Cc1ccc2c(c1)O[C@@H](CN(C)Cc1ccccc1F)[C@H](C)CN([C@H](C)CO)S2(=O)=O | inactive: 1.05
O=C(C[C@@H]1C=C[C@@H](NC(=O)CN2CCOCC2)[C@@H](CO)O1)NCCc1ccncc1 | inactive: 1
COc1ccc([Si](C)(C)[C@@H]2[C@@H](CCn3cc(CCO)nn3)O[C@]3(C(=O)N(Cc4ccc(N5C(=O)c6cccc7cccc5c67)cc4)c4ccccc43)[C@H]2C)cc1 | inactive: 1.02
COc1ccc(S(=O)(=O)Nc2ccc3c(c2)C(=O)N([C@@H](C)CO)C[C@@H](C)[C@@H](CN(C)S(=O)(=O)c2ccc(Cl)cc2)OCCCC[C@H](C)O3)cc1 | inactive: 1.02
Oc1ccc2c(c1)OCC1(O)Cc3cc(O)c(O)cc3C21 (configuration not stated) | inactive: 1.11
Cc1ncc([N+](=O)[O-])n1C[C@@H](C)O | inactive: 1.03
C[C@@H]1CN([C@@H](C)CO)C(=O)c2cc(C#CC3(O)CCCC3)cnc2O[C@@H]1CN(C)C(=O)C1CCOCC1 | inactive: 0.962
CCCC#Cc1ccc2c(c1)O[C@H](CN(C)Cc1ccc3c(c1)OCO3)[C@@H](C)CN([C@@H](C)CO)S2(=O)=O | inactive: 0.901

Compound | relative growth
COc1ccccc1CNC(=O)C[C@H]1C[C@@H]2c3cc(NC(=O)c4cccnc4)ccc3O[C@@H]2[C@@H](CO)O1 | inactive: 1
C[C@H](CO)N1C[C@H](C)[C@H](CN(C)C(=O)Nc2ccc(C(F)(F)F)cc2)OCCCC[C@H](C)Oc2ccc(NC(=O)Nc3ccc(F)cc3)cc2C1=O | inactive: 0.986
COCC(=O)N1C[C@H](C)[C@@H](OC)CN(C)C(=O)c2ccc(NC(=O)Nc3cccc(F)c3)cc2OC[C@H]1C | inactive: 0.997
COc1cc(C(=O)NC2CCCNC2)cc(OC)c1OC (configuration not stated) | inactive: 1.08
CCOC(=O)/C(C#N)=C1/C=CN(C)C=N1 | inactive: 0.942
C[C@H](CO)N1C[C@H](C)[C@@H](CN(C)S(C)(=O)=O)Oc2cc(-c3ccc(F)cc3)ccc2S1(=O)=O | inactive: 1.01
C[C@H](CO)N1C[C@H](C)[C@@H](CN(C)S(=O)(=O)c2cn(C)cn2)Oc2ccc(NS(=O)(=O)c3cccs3)cc2C1=O | inactive: 0.999
COc1ccc([Si](C)(C)[C@@H]2[C@@H](CC(=O)N3Cc4ccccc4C[C@H]3CO)O[C@]3(C(=O)N(Cc4ccc(N5CCC5=O)cc4)c4ccccc43)[C@H]2C)cc1 | inactive: 0.907
COCC(=O)N1[C@H](C(=O)NCc2ccccc2)[C@@H](CO)[C@@H]2Cn3c(cccc3=O)[C@@H]21 | inactive: 1.03
O=C(C[C@@H]1CC=CCCC(=O)OCCNC1=O)NCCO | inactive: 1.02
COc1ccc(-c2coc3cc(OC)ccc3c2=O)c(O)c1 | inactive: 0.904
C[C@H]1CN([C@@H](C)CO)C(=O)c2cc(NC(=O)CCCCCC(=O)Nc3ccccc3N)ccc2O[C@H]1CN(C)CC1CCCCC1 | inactive: 0.97
CN(C)C(=O)[C@H]1[C@H](CO)[C@H]2Cn3c(ccc(C4=CCCC4)c3=O)[C@@H]1N2S(=O)(=O)c1cn(C)cn1 | inactive: 1.01
C[C@@H]1CN([C@@H](C)CO)C(=O)Cc2cc(NC(=O)Nc3ccc(F)cc3)ccc2O[C@H]1CN(C)Cc1ccc(C(=O)Nc2ccccc2N)cc1 | inactive: 1.01
COCC(=O)Nc1ccc2c(c1)OC[C@H](C)N(Cc1cccc(F)c1)C[C@H](C)[C@@H](OC)CN(C)C2=O | inactive: 0.973
C[C@H](CO)N1C[C@H](C)[C@H](CN(C)S(=O)(=O)c2ccc(F)cc2)Oc2ncc(C#CC3(O)CCCC3)cc2C1=O | inactive: 0.995
CC1=CC(=O)N(c2ccn(C)n2)C1=O | inactive: 0.987
C[C@H](CO)N1C[C@H](C)[C@H](CN(C)C(=O)c2ccccc2)OCCCC[C@H](C)Oc2ccc(NC(=O)CCC(F)(F)F)cc2C1=O | inactive: 0.994
C[C@@H]1CN([C@H](C)CO)C(=O)Cc2cc(NC(=O)Cn3cnnn3)ccc2O[C@@H]1CN(C)C(=O)Nc1ccc(F)cc1 | inactive: 0.989
C[C@H](CO)N1C[C@H](C)[C@@H](CN(C)C(=O)NC2CCCCC2)Oc2ccc(NC(=O)CCN3CCOCC3)cc2CC1=O | inactive: 0.985
COCC#Cc1cnc2c(c1)C(=O)N([C@@H](C)CO)C[C@@H](C)[C@@H](CN(C)C(=O)CCN1CCCCC1)O2 | inactive: 0.999

Compound | relative growth
C[C@H](CO)N1C[C@H](C)[C@H](CN(C)S(=O)(=O)c2cccc(C#N)c2)OCc2cn(nn2)CCCC1=O | inactive: 0.983
Cc1noc(C)c1NC(=O)Nc1ccc2c(c1)C(=O)N([C@@H](C)CO)C[C@H](C)[C@@H](CN(C)Cc1ccncc1)OCCCC[C@H](C)O2 | inactive: 1.01
COc1ccc(S(=O)(=O)N(C)C[C@@H]2Oc3c(NC(=O)c4cc(C)nn4C)cccc3C(=O)N([C@@H](C)CO)C[C@H]2C)cc1 | inactive: 1.03
Cc1noc(C)c1NC(=O)N(C)C[C@H]1Oc2ccc(NS(C)(=O)=O)cc2C(=O)N([C@@H](C)CO)C[C@@H]1C | inactive: 1.01
C[C@@H]1CCCCO[C@@H](CN(C)Cc2ccc(Cl)c(Cl)c2)[C@@H](C)CN([C@H](C)CO)C(=O)c2cc(NC(=O)Nc3ccc(C(F)(F)F)cc3)ccc2O1 | inactive: 0.996
Cc1ccc(S(=O)(=O)N(C)C[C@H]2Oc3ncc(C#CC4(O)CCCC4)cc3C(=O)N([C@@H](C)CO)C[C@@H]2C)cc1 | inactive: 1.01
C=c1ccc(S(=O)(=O)NC[C@@H](C)O)cc1=C1NN=C2c3ccccc3C(C)=NN21 | inactive: 0.987
COc1ccccc1S(=O)(=O)N(C)C[C@H]1Oc2cc(C#CCC(C)C)ccc2S(=O)(=O)N([C@H](C)CO)C[C@@H]1C | inactive: 0.994
CC(C)NC(=O)N(C)C[C@H]1Oc2ccc(NS(=O)(=O)c3ccc(F)cc3)cc2CC(=O)N([C@@H](C)CO)C[C@@H]1C | inactive: 1.01
C[C@@H]1CN([C@@H](C)CO)C(=O)c2cc(C#Cc3ccc(F)cc3)cnc2O[C@H]1CN(C)CC1CCOCC1 | inactive: 0.991
COc1ccc(NC(=O)N(C)C[C@@H]2OCCCC[C@H](C)Oc3ccc(NC(=O)Cc4ccccc4)cc3C(=O)N([C@H](C)CO)C[C@@H]2C)cc1 | inactive: 0.983
COc1ccc(C2CC(=O)c3c(O)cc(O)cc3O2)cc1O (configuration not stated) | inactive: 1.03
COC[C@@H]1CN(C)C(=O)[C@H]2CCN(S(=O)(=O)N(C)C)CC[C@@H]12 | inactive: 1.02
CC(C)(C)[S@@](=O)N1Cc2cc(C(=O)NCc3ccc4c(c3)OCO4)nc(-c3cccc(-c4ccncc4)c3)c2[C@H]1CCO | inactive: 1.04
CC(=O)c1cc2c(cc1O)OC(C)(C)C=C2 | inactive: 0.946
O=C(C[C@H]1C[C@@H]2c3cc(NC(=O)Nc4ccc(C(F)(F)F)cc4)ccc3O[C@@H]2[C@H](CO)O1)NCc1cc(F)ccc1F | inactive: 1.02
O=C(C[C@@H]1C[C@H]2c3cc(NS(=O)(=O)c4ccc(F)cc4)ccc3O[C@H]2[C@@H](CO)O1)NC1CCCCC1 | inactive: 0.997
CO[C@@H]1CN(C)C(=O)c2ccc(NC(=O)Nc3cccc(F)c3)cc2OC[C@H](C)N(C(=O)Nc2c(C)noc2C)C[C@H]1C | inactive: 0.964
C[C@@H]1CCCCO[C@@H](CN(C)C(=O)c2ccncc2)[C@@H](C)CN([C@H](C)CO)C(=O)c2cc(NS(C)(=O)=O)ccc2O1 | inactive: 1
C[C@@H]1CN([C@@H](C)CO)C(=O)c2cc(C3=CCCC3)cnc2O[C@@H]1CN(C)S(=O)(=O)c1cn(C)cn1 | inactive: 0.966
